# Some of these results come from one statement about several compounds together.
# System: Ctenocephalides felis
# Test: Flea (Ctenocephalides felis) Membrane Feed Assay-Adult
# Type: in vivo
# Details: adult fleas fed on treated citrated bovine blood approximately 2 hours; knockdown and/or death at approximately 2 and 24 hours
row,Structure (SMILES),lethal dose 90% (LD^90) [µg/mL]
1,"O=C(N1CCC1)N1CC(F)(c2ccc(C3=NOC(c4cc(Cl)c(Cl)c(Cl)c4)(C(F)(F)F)C3)cc2)C1 (centres unmarked) [Example 174, 3-{4-[1-(azetidin-1-ylcarbonyl)-3-fluoroazetidin-3-yl]phenyl}-5-(3,4,5-trichlorophenyl)-5-(trifluoromethyl)-4,5-dihydroisoxazole]",≤ 1
2,"NC(=O)N1CC(F)(c2ccc(C3=NOC(c4cc(Cl)c(Cl)c(Cl)c4)(C(F)(F)F)C3)cc2)C1 (centres unmarked) [Example 186, 3-fluoro-3-{4-[5-(3,4,5-trichlorophenyl)-5-(trifluoromethyl)-4,5-dihydroisoxazol-3-yl]phenyl}azetidine-1-carboxamide]",≤ 3
3,"CCCNC(=O)N1CC(O)(c2ccc(C3=NOC(c4cc(Cl)c(Cl)c(C(F)(F)F)c4)(C(F)(F)F)C3)cc2)C1 (centres unmarked) [Example 189, 3-(4-{5-[3,4-dichloro-5-(trifluoromethyl)phenyl]-5-(trifluoromethyl)-4,5-dihydroisoxazol-3-yl}phenyl)-3-hydroxy-N-propylazetidine-1-carboxamide]",≤ 3
4,"CN(C)C(=O)N1CC(O)(c2ccc(C3=NOC(c4cc(Cl)c(Cl)c(C(F)(F)F)c4)(C(F)(F)F)C3)cc2)C1 (centres unmarked) [Example 190, 3-(4-{5-[3,4-dichloro-5-(trifluoromethyl)phenyl]-5-(trifluoromethyl)-4,5-dihydroisoxazol-3-yl}phenyl)-3-hydroxy-N,N-dimethylazetidine-1-carboxamide]",≤ 3
5,"CCNC(=O)N1CC(c2ccc(C3=NOC(c4cc(Cl)c(Cl)c(Cl)c4)(C(F)(F)F)C3)cc2)C1 (centres unmarked) [Example 191, N-ethyl-3-{-4-[5-(3,4,5-trichlorophenyl)-5-(trifluoromethyl)-4,5-dihydroisoxazol-3-yl]phenyl}azetidine-1-carboxamide]",≤ 3
6,"CNC(=O)N1CC(c2ccc(C3=NOC(c4cc(Cl)c(F)c(Cl)c4)(C(F)(F)F)C3)cc2)C1 (centres unmarked) [Example 192, 3-{4-[5-(3,5-dichloro-4-fluorophenyl)-5-(trifluoromethyl)-4,5-dihydroisoxazol-3-yl]phenyl}-N-methylazetidine-1-carboxamide]",≤ 3
7,"CCNC(=O)N1CC(c2ccc(C3=NOC(c4cc(Cl)cc(Cl)c4)(C(F)(F)F)C3)cc2)C1 (centres unmarked) [Example 194, 3-{4-[5-(3,5-dichlorophenyl)-5-(trifluoromethyl)-4,5-dihydroisoxazol-3-yl]phenyl}-N-ethylazetidine-1-carboxamide]",≤ 3
8,"CCNC(=O)N1CC(c2ccc(C3=NOC(c4cc(Cl)c(F)c(Cl)c4)(C(F)(F)F)C3)cc2)C1 (centres unmarked) [Example 195, 3-{4-[5-(3,5-dichloro-4-fluorophenyl)-5-(trifluoromethyl)-4,5-dihydroisoxazol-3-yl]phenyl}-N-ethylazetidine-1-carboxamide]",≤ 3
9,"CNC(=O)N1CC(c2ccc(C3=NOC(c4cc(Cl)cc(C(F)(F)F)c4)(C(F)(F)F)C3)cc2)C1 (centres unmarked) [Example 196, 3-(4-{5-[3-chloro-5-(trifluoromethyl)phenyl]-5-(trifluoromethyl)-4,5-dihydroisoxazol-3-yl}phenyl)-N-methylazetidine-1-carboxamide]",≤ 3
10,"O=C(NC1CC1)N1CC(c2ccc(C3=NOC(c4cc(Cl)c(F)c(Cl)c4)(C(F)(F)F)C3)cc2)C1 (centres unmarked) [Example 198, N-cyclopropyl-3-{4-[5-(3,5-dichloro-4-fluorophenyl)-5-(trifluoromethyl)-4,5-dihydroisoxazol-3-yl]phenyl}azetidine-1-carboxamide]",≤ 1
11,"CN(C)C(=O)N1CC(F)(c2ccc(C3=NOC(c4cc(Cl)c(Cl)c(Cl)c4)(C(F)(F)F)C3)cc2)C1 (centres unmarked) [Example 201, 3-fluoro-N,N-dimethyl-3-{4-[5-(3,4,5-trichlorophenyl)-5-(trifluoromethyl)-4,5-dihydroisoxazol-3-yl]phenyl}azetidine-1-carboxamide]",≤ 1
12,"CN(C)C(=O)N1CC(F)(c2ccc(C3=NOC(c4cc(Cl)c(Cl)c(C(F)(F)F)c4)(C(F)(F)F)C3)cc2)C1 (centres unmarked) [Example 202, 3-(4-{5-[3,4-dichloro-5-(trifluoromethyl)phenyl]-5-(trifluoromethyl)-4,5-dihydroisoxazol-3-yl}phenyl)-3-fluoro-N,N-dimethylazetidine-1-carboxamide]",≤ 1
13,"O=C(NCCC(F)(F)F)N1CC(F)(c2ccc(C3=NOC(c4cc(Cl)c(Cl)c(C(F)(F)F)c4)(C(F)(F)F)C3)cc2)C1 (centres unmarked) [Example 203, 3-(4-{5-[3,4-dichloro-5-(trifluoromethyl)phenyl]-5-(trifluoromethyl)-4,5-dihydroisoxazol-3-yl}phenyl)-3-fluoro-N-(3,3,3-trifluoropropyl)azetidine-1-carboxamide]",≤ 3
14,"CN(C)C(=O)N1CC(N=[N+]=[N-])(c2ccc(C3=NOC(c4cc(Cl)c(Cl)c(Cl)c4)(C(F)(F)F)C3)cc2)C1 (centres unmarked) [Example 205, 3-azido-N,N-dimethyl-3-{4-[5-(3,4,5-trichlorophenyl)-5-(trifluoromethyl)-4,5-dihydroisoxazol-3-yl]phenyl}azetidine-1-carboxamide]",≤ 1
15,"N#Cc1cc(C2=NOC(c3cc(Cl)c(F)c(Cl)c3)(C(F)(F)F)C2)ccc1C1(F)CN(C(=O)C2CC2)C1 (centres unmarked) [Example 206, 2-[1-(cyclopropylcarbonyl)-3-fluoroazetidin-3-yl]-5-[5-(3,5-dichloro-4-fluorophenyl)-5-(trifluoromethyl)-4,5-dihydroisoxazol-3-yl]benzonitrile]",≤ 1
16,"CC(=O)N1CC(F)(c2ccc(C3=NOC(c4cc(Cl)c(F)c(Cl)c4)(C(F)(F)F)C3)cc2C#N)C1 (centres unmarked) [Example 207, 2-(1-acetyl-3-fluoroazetidin-3-yl)-5-[5-(3,5-dichloro-4-fluorophenyl)-5-(trifluoromethyl)-4,5-dihydroisoxazol-3-yl]benzonitrile]",≤ 1
17,"N#Cc1cc(C2=NOC(c3cc(Cl)c(F)c(Cl)c3)(C(F)(F)F)C2)ccc1C1(F)CN(C(=O)CC(F)(F)F)C1 (centres unmarked) [Example 208, 5-[5-(3,5-dichloro-4-fluorophenyl)-5-(trifluoromethyl)-4,5-dihydroisoxazol-3-yl]-2-[3-fluoro-1-(3,3,3-trifluoropropanoyl)azetidin-3-yl]benzonitrile]",≤ 1
18,"CC(C)C(=O)N1CC(F)(c2ccc(C3=NOC(c4cc(Cl)c(F)c(Cl)c4)(C(F)(F)F)C3)cc2C#N)C1 (centres unmarked) [Example 210, 5-[5-(3,5-dichloro-4-fluorophenyl)-5-(trifluoromethyl)-4,5-dihydroisoxazol-3-yl]-2-(3-fluoro-1-isobutyrylazetidin-3-yl)benzonitrile]",≤ 1
19,"N#Cc1cc(C2=NOC(c3cc(Cl)c(F)c(Cl)c3)(C(F)(F)F)C2)ccc1C1(F)CN(C(=O)CO)C1 (centres unmarked) [Example 211, 5-[5-(3,5-dichloro-4-fluorophenyl)-5-(trifluoromethyl)-4,5-dihydroisoxazol-3-yl]-2-(3-fluoro-1-glycoloylazetidin-3-yl)benzonitrile]",≤ 3
20,"CCCC(=O)N1CC(F)(c2ccc(C3=NOC(c4cc(Cl)c(F)c(Cl)c4)(C(F)(F)F)C3)cc2C#N)C1 (centres unmarked) [Example 212, 2-(1-butyryl-3-fluoroazetidin-3-yl)-5-[5-(3,5-dichloro-4-fluorophenyl)-5-(trifluoromethyl)-4,5-dihydroisoxazol-3-yl]benzonitrile]",≤ 1

# — patent publication US8415310B2, “Isoxazoline derivatives as antiparasitic agents” (AH USA 42 LLC, priority 2010, dated 2013)
